# According to the supplement of paper PMC10037445:
# Whole data set: some 2,900 compounds, median “IRF Lucia reporter activity, fold change vs agonist alone” near 0.9, cut for the highest 2% near 2.8. This is one part of the list.
# Legend:
# RAW-Dual [1] = experiment: IRF Lucia reporter activity, fold change vs agonist alone; cytotoxicity flag (confluency mask): not cytotoxic; higher = enhanced IRF activity
# Method in brief: (§1)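 Library stock was pin-tooled at 50 nL into 384-well plates of RAW-Dual macrophages (50,000 cells/well, DMEM), followed 1 h later by a PRR agonist, and the cells were kept at 37 °C, 5% CO2. Supernatant collected after 20 hours was read for IRF by QuantiLuc luminescence and for NF-κB by QuantiBlue absorbance at 620 nm. Reporter activity is fold change over agonist-alone wells, and a well counted as cytotoxic when its IncuCyte confluency was below 70% of agonist controls in both mask sets.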
# RAW-Dual [2] = experiment: IRF Lucia reporter activity, fold change vs agonist alone; higher = enhanced IRF activity; conditions: cytotoxicity flag (confluency mask): not cytotoxic, agonist: MPLA (TLR4) […]
# Method in brief: as §1
# RAW-Dual [3] = experiment: IRF Lucia reporter activity, fold change vs agonist alone; cytotoxicity flag (confluency mask): cytotoxic (confluency <70% of control); higher = enhanced IRF activity
# Method in brief: as §1
# [4] = agonist: 3'3'-cGAMP (STING) 10 ug/mL
# [5] = library stock concentration (final ~1000-fold dilution): 10 mM
smiles,measurement,setting,value
c1ccc(NCc2ccc(CNc3ccccn3)cc2)nc1 (library stock concentration (final ~1000-fold dilution): 10 mM),IRF Lucia reporter activity,RAW-Dual [1]; [4],0.988
same,IRF Lucia reporter activity,RAW-Dual [1]; agonist: LPS (TLR4) 0.1 ug/mL,0.989
O=C(NC(C1CC1)C(F)(F)F)c1cc(-c2cnn3cc(-c4ccc(F)cc4)cnc23)cs1 (stereo unspecified) (library stock concentration (final ~1000-fold dilution): 10 mM),IRF Lucia reporter activity,RAW-Dual [1]; [4],0.0246
same,IRF Lucia reporter activity,RAW-Dual [1]; agonist: LPS (TLR4) 0.1 ug/mL,0.0248
CC(C)(C)C1NC(=O)OC2CCCC2OC/C=C/C(F)(F)c2nc3ccccc3nc2OC2CC(C(=O)NC3(C(=O)NS(=O)(=O)C4(C)CC4)CC3C(F)F)N(C2)C1=O (stereo unspecified),IRF Lucia reporter activity,RAW-Dual [2]; [5],0.932
CC(C)(C)C1NC(=O)OC2CCCC2OC/C=C/C(F)(F)c2nc3ccccc3nc2OC2CC(C(=O)NC3(C(=O)NS(=O)(=O)C4(C)CC4)CC3C(F)F)N(C2)C1=O (stereo unspecified) (library stock concentration (final ~1000-fold dilution): 10 mM),IRF Lucia reporter activity,RAW-Dual [1]; [4],0.867
same,IRF Lucia reporter activity,RAW-Dual [1]; agonist: LPS (TLR4) 0.1 ug/mL,1.1
CC(=O)OC1(C(C)=O)CCC2C3C=C(Cl)C4=CC(=O)C5CC5C4(C)C3CCC21C (stereo unspecified) (library stock concentration (final ~1000-fold dilution): 10 mM),IRF Lucia reporter activity,RAW-Dual [1]; [4],1.06
same,IRF Lucia reporter activity,RAW-Dual [1]; agonist: LPS (TLR4) 0.1 ug/mL,0.811
CC(=O)OC1(C(C)=O)CCC2C3C=C(Cl)C4=CC(=O)C5CC5C4(C)C3CCC21C (stereo unspecified),IRF Lucia reporter activity,RAW-Dual [2]; [5],0.878
CCN(CC)CC#CCOC(=O)C(O)(c1ccccc1)C1CCCCC1.Cl (stereo unspecified) (library stock concentration (final ~1000-fold dilution): 10 mM),IRF Lucia reporter activity,RAW-Dual [1]; [4],1
same,IRF Lucia reporter activity,RAW-Dual [1]; agonist: LPS (TLR4) 0.1 ug/mL,1.33
CCN(CC)CC#CCOC(=O)C(O)(c1ccccc1)C1CCCCC1.Cl (stereo unspecified),IRF Lucia reporter activity,RAW-Dual [2]; [5],1.47
O=C(O)Cc1ccc(-c2ccccc2)cc1,IRF Lucia reporter activity,RAW-Dual [2]; [5],1.01
O=C(O)Cc1ccc(-c2ccccc2)cc1 (library stock concentration (final ~1000-fold dilution): 10 mM),IRF Lucia reporter activity,RAW-Dual [1]; [4],0.985
same,IRF Lucia reporter activity,RAW-Dual [1]; agonist: LPS (TLR4) 0.1 ug/mL,0.941
CCCOc1ccc(S(=O)(=O)NCCC2CCCN2C)cc1-c1nc(=O)c2c([nH]1)c(CCC)nn2C (stereo unspecified) (library stock concentration (final ~1000-fold dilution): 10 mM),IRF Lucia reporter activity,RAW-Dual [1]; [4],0.655
same,IRF Lucia reporter activity,RAW-Dual [1]; agonist: LPS (TLR4) 0.1 ug/mL,0.969
CCCOc1ccc(S(=O)(=O)NCCC2CCCN2C)cc1-c1nc(=O)c2c([nH]1)c(CCC)nn2C (stereo unspecified),IRF Lucia reporter activity,RAW-Dual [2]; [5],1.27
CC1CNCCCN1S(=O)(=O)c1cccc2cncc(F)c12.Cl.O.O (stereo unspecified) (library stock concentration (final ~1000-fold dilution): 10 mM),IRF Lucia reporter activity,RAW-Dual [1]; [4],0.884
same,IRF Lucia reporter activity,RAW-Dual [1]; agonist: LPS (TLR4) 0.1 ug/mL,1.03
Nc1nc(=S)c2[nH]cnc2[nH]1 (library stock concentration (final ~1000-fold dilution): 10 mM),IRF Lucia reporter activity,RAW-Dual [1]; [4],0.383
same,IRF Lucia reporter activity,RAW-Dual [1]; agonist: LPS (TLR4) 0.1 ug/mL,0.723
Nc1nc(=S)c2[nH]cnc2[nH]1,IRF Lucia reporter activity,RAW-Dual [2]; [5],0.595
O=C1c2ccccc2C(=O)c2c1ccc(O)c2O (library stock concentration (final ~1000-fold dilution): 10 mM),IRF Lucia reporter activity,RAW-Dual [1]; [4],0.887
same,IRF Lucia reporter activity,RAW-Dual [1]; agonist: LPS (TLR4) 0.1 ug/mL,0.943
O=C1c2ccccc2C(=O)c2c1ccc(O)c2O,IRF Lucia reporter activity,RAW-Dual [2]; [5],0.936
COC(=O)[C@]12CCC(C)(C)C[C@H]1[C@H]1C(=O)C=C3[C@@]4(C)C=C(C#N)C(=O)C(C)(C)[C@@H]4CC[C@@]3(C)[C@]1(C)CC2 (library stock concentration (final ~1000-fold dilution): 10 mM),IRF Lucia reporter activity,RAW-Dual [3]; [4],0.00682
same,IRF Lucia reporter activity,RAW-Dual [3]; agonist: LPS (TLR4) 0.1 ug/mL,0.0098
CCCOc1ccn2c(C(C)=O)cc(-c3ccccc3S(C)(=O)=O)c2c1 (library stock concentration (final ~1000-fold dilution): 10 mM),IRF Lucia reporter activity,RAW-Dual [1]; [4],0.81
same,IRF Lucia reporter activity,RAW-Dual [1]; agonist: LPS (TLR4) 0.1 ug/mL,0.654
CCCOc1ccn2c(C(C)=O)cc(-c3ccccc3S(C)(=O)=O)c2c1,IRF Lucia reporter activity,RAW-Dual [2]; [5],0.859
CC(/C=C1\SC(=S)N(CC(=O)O)C1=O)=C\c1ccccc1,IRF Lucia reporter activity,RAW-Dual [2]; library stock concentration (final ~1000-fold dilution): 2 mM,1.3
CC(/C=C1\SC(=S)N(CC(=O)O)C1=O)=C\c1ccccc1 (library stock concentration (final ~1000-fold dilution): 2 mM),IRF Lucia reporter activity,RAW-Dual [1]; [4],1.05
same,IRF Lucia reporter activity,RAW-Dual [1]; agonist: LPS (TLR4) 0.1 ug/mL,0.924
c1ccc(CNc2nc(NCc3ccccc3)c3ccccc3n2)cc1,IRF Lucia reporter activity,RAW-Dual [2]; [5],0.0214
c1ccc(CNc2nc(NCc3ccccc3)c3ccccc3n2)cc1 (library stock concentration (final ~1000-fold dilution): 10 mM),IRF Lucia reporter activity,RAW-Dual [1]; [4],0.0289
same,IRF Lucia reporter activity,RAW-Dual [1]; agonist: LPS (TLR4) 0.1 ug/mL,0.0281
NCC1OC(OC2C(CO)OC(OC3C(O)C(N)CC(N)C3OC3OC(CO)C(O)C(O)C3N)C2O)C(N)C(O)C1O.O=S(=O)(O)O (stereo unspecified) (library stock concentration (final ~1000-fold dilution): 10 mM water),IRF Lucia reporter activity,RAW-Dual [1]; [4],1.27
same,IRF Lucia reporter activity,RAW-Dual [1]; agonist: LPS (TLR4) 0.1 ug/mL,1.08
NCC1OC(OC2C(CO)OC(OC3C(O)C(N)CC(N)C3OC3OC(CO)C(O)C(O)C3N)C2O)C(N)C(O)C1O.O=S(=O)(O)O (stereo unspecified),IRF Lucia reporter activity,RAW-Dual [2]; library stock concentration (final ~1000-fold dilution): 10 mM water,1.24
COC(=O)CCSCc1ccc(-c2onc(C)c2NC(=O)OC(C)c2ccccc2Cl)cc1 (stereo unspecified),IRF Lucia reporter activity,RAW-Dual [2]; [5],1.04
COC(=O)CCSCc1ccc(-c2onc(C)c2NC(=O)OC(C)c2ccccc2Cl)cc1 (stereo unspecified) (library stock concentration (final ~1000-fold dilution): 10 mM),IRF Lucia reporter activity,RAW-Dual [1]; [4],1.03
same,IRF Lucia reporter activity,RAW-Dual [1]; agonist: LPS (TLR4) 0.1 ug/mL,0.918
C=C(CC(=O)OCCCCCCCC)C(=O)O (library stock concentration (final ~1000-fold dilution): 10 mM),IRF Lucia reporter activity,RAW-Dual [1]; [4],0.619
same,IRF Lucia reporter activity,RAW-Dual [1]; agonist: LPS (TLR4) 0.1 ug/mL,1.11
